Data taken from BigSolDB 2.1.

CN(C)CCOC(c1ccccc1)c1ccccc1.Cl
solubility (mole fraction)
Details | 278.15 K | 283.15 K | 288.15 K | 293.15 K | 298.15 K | 303.15 K | 308.15 K | 313.15 K | 318.15 K | 323.15 K
in acetone | 0.00151 | 0.00193 | 0.00223 | 0.00259 | 0.00302 | 0.00352 | 0.00408 | 0.00488 | 0.0055 | 0.00662
in ethanol | 0.0217 | 0.0296 | 0.0392 | 0.0505 | 0.0633 | 0.0774 | 0.0924 | 0.108 | 0.12 | 0.137
in ethyl acetate | 4.96e-05 | 8.31e-05 | 0.000141 | 0.000226 | 0.000309 | 0.000431 | 0.000604 | 0.000811 | 0.000986 | 0.00126
in methanol | 0.122 | 0.138 | 0.147 | 0.156 | 0.162 | 0.167 | 0.173 | 0.18 | 0.191 | 0.195
